Read counts are not given, so values of variants with three or more changes are uncertain.
B1: OR4K15 (parent)
chain: GUUAACGGUCAUAGGCCAUGGAAACUAGGAGCACCAUUUCGCUGCCAGUGAAGAAAUGAACAAAGAAAAUCUGGGCCAGGCAGGCAUCAAAAGAAAUAGUCUUGCGCUCAACCAGAAAGUCUGUAAUCAUUUUAAGGGUA

Variants of: B1
Assay: self-cleavage, relative activity (ratio to wild type); higher = more cleavage; in vitro, sequencing; the parent is a self-cleaving ribozyme

Row | Variant | self-cleavage
1 | A5G C10U U72A A111U | 0.12
2 | A62U A86U A94G | 2.01
3 | U19A U49C A67G A94G | 1.18
4 | U26C A86G A91U A116U U131A | 0.08
5 | U9A G14U A59G | 0.98
6 | A67G A117G U133C | 2.42
7 | U43A U87C A135G | 1.31
8 | A33G A51U U102C | 1.36
9 | A4U A82G U120A U139C | 0.5
10 | A59G A82U G106U C107U | 0
11 | A54G A60U U102C A114G U124A | 0.49
12 | A52G G53U A56G C77U A114G U122A | 1.83
13 | U102C U120C A126G | 0.84
14 | A11G U49C A62C U102C U132A | 1.26
15 | U72A U100C U122C | 0.46
16 | U39C A62G A96G | 1.72
17 | U9C A55G U72A A126U | 0.36
18 | A59G G104A A116G | 0
19 | U9C A54U A67C A86G U132C | 2.51
20 | U19A U37C U49C A114G | 0.1
21 | A4G U43C A78U | 0.16

Row | Variant | self-cleavage
22 | G14U A51G A54G A66G U87A | 0.62
23 | A36G A110G U131C | 0.03
24 | U38C A67G U108C | 0.03
25 | C17U U57C A67G A78G | 0.33
26 | U26C A47U A62G A63G A82G A90G U122A | 0.2
27 | A54U A86G A114G | 0.48
28 | A27U A55G U100C A140G | 2.27
29 | A62U A63C U87G | 0.4
30 | A36C A89U U133C A135G | 2.09
31 | A51G A126G U127A | 1.53
32 | A23G A95G A114G A135U | 1.14
33 | A13G A22G A63G A86G | 0.85
34 | A27G A54G A78C | 0.28
35 | A55G A92G U100C | 2.37
36 | U97A A117G U130C | 1.11
37 | A59G G73A U108C | 0.01
38 | U38C A111G U131C | 0.01
39 | A64G A110U U130C | 0.51
40 | A54G A110U A111C | 0.16
41 | A52U U100C U103C | 2.38
42 | A36G A68G A111U | 0.07

Row | Variant | self-cleavage
43 | A30G U43G A96G U100C | 2.33
44 | U37C U70C A82G G106A | 0.02
45 | A86G A90G A98G U102C C113A A118G | 0
46 | A22G U37C C42U | 1.15
47 | U3C U12C U19C A82U A92G A126G U131C | 0.09
48 | U39C U57C A78C U130C | 0.2
49 | A54G A60G A116G A118G | 0.3
50 | A60G A68U U127C A140G | 1.1
51 | A5G A22G C76A U130C | 0.28
52 | A13G U43C A52G A90G A135G | 1.82
53 | A11G A47G A59G A66G | 0.72
54 | U19A A82G U87G U108A | 0.04
55 | G41A A60G A92G G106A | 0.02
56 | U2A A33G G53U U127C A140G | 0.7
57 | U9C A36C A51G | 1.94
58 | U9A C16U U43C U72C U87C | 0.13
59 | A11G U39A A62U U130C | 0.36
60 | C10U A30G G31U A95U | 1.18
61 | A18G U39C A78U A86G U102A | 0.17
62 | A33G A54G U70C A96G U120A | 0.29
63 | A22G A68U A126G | 0

Row | Variant | self-cleavage
64 | U2C U103C A118G | 0.62
65 | U37C A64G A94G U97A C105G A111G U120C | 0
66 | U9C A111G A126C | 0.02
67 | U2C U9C A59U A98G U132A | 0.16
68 | U2C A18U A33G A36G U108C U130C | 0.01
69 | A4G A94U U102C | 1.41
70 | U100C U108C A135U | 0
71 | A47U A52G C76U U87A U131C A135G | 0.04
72 | A18U U38A A62G A66G | 0.28
73 | A18G A91G A98U U100A A110G | 0.13
74 | A11G U102C U120C | 1.14
75 | A54U U97A U122A | 1.55
76 | A55G A82U A135G | 0.09
77 | C40U A52G A56G A114U | 0.07
78 | A52G A56G U57A A135G | 1.15
79 | G1U A23G A24C G48A A56G U130C | 0.46
80 | A4G A67G A94G | 0.94
81 | G1U A33C G84A A110G | 0.2
82 | U2C A13U A18G U72C U108G | 0.07
83 | C61U A114G A126G | 0.62
